PubChem BioAssay AID662 (National Center for Advancing Translational Sciences (NCATS), 2007)
Hit rate of the full screen: of about 71,000 compounds, about 1,800 (2.5%) were called active. Inconclusive results, whose numbers are uncertain, are shown with a selection of clear calls. Calls come from the whole dose curve; as a rule, active = well fitted activation curve with a large enough effect in the signal ratio, with a control signal flat (not every such curve was filed as active); inconclusive = small, poorly fitted or top-dose-only effect, or effect the other way, or a change in a side signal; inactive = flat fitted curve, though single readings scatter; the % refers to the signal ratio. Potencies of inconclusive entries are doubtful fits and often do not repeat.

experiment: Cell signaling CRE-BLA (Fsk stim); details: CHO CRE-bla reporter (cAMP response element driving beta-lactamase), forskolin EC10, beta-lactamase ratio; activity change, negative = inhibition: at 38.2 µM (top of the series) unless noted; for activity change, negative = inhibition: % of control where 0% means no effect
Summary of the method: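 Modulation of forskolin signalling: compounds in titration series added with EC10 NKH 477 to CHO cells carrying a CRE-driven beta-lactamase reporter, 3 h, 37C. CCF4 FRET ratio (460/530 nm, ex 405 nm) gives %activity and AC50.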
Potency is the fitted concentration of half-maximal effect; tags give direction and shape of the fitted curve.

Q: For `CCOC(=O)CC1=NS(=O)(=O)c2ccccc2N1`, which Potency is on record?
A: Its Potency is inconclusive: 15.8 µM [rising, single point].

Q: For `C=CCc1c(C)[nH]c2ccc(C)cc2c1=O`, which Potency is on record?
A: The Potency was inconclusive: 6.31 µM [rising, partial curve].

Q: Which activity change, negative = inhibition does the source give for `O=C1CC(O)(C(F)(F)F)Oc2c1ccc1ccccc21` (stereo not given) here?
A: Its activity change, negative = inhibition is inconclusive: -24%.

Q: For `CCOc1cc(C(=O)N(C)Cc2cc3cc(OC)ccc3[nH]c2=O)cc(OCC)c1OCC`, which “activity change, negative = inhibition” value is on record?
A: Its value is inactive: 5.23%.

Q: Which Potency does the source give for `COCCn1c(=O)c(-c2cccc(C#N)c2)nc2cnc(N3CCNCC3)nc21` here?
A: Its Potency is inconclusive: 12.6 µM [rising, partial curve].

Q: For `Cc1cc(C)c2c3c(sc2n1)C1(CCSCC1)C(C#N)=C(N)O3`, which Potency is on record?
A: The Potency was inconclusive: 7.94 µM [rising, partial curve].

Q: With `CN1CC2(C(=O)c3ccccc3)CN(C)CC(C(=O)c3ccccc3)(C1)C2` as the molecule, how does the Potency read?
A: The Potency was inconclusive: 0.1 µM [falling, full curve, poor fit].

Q: With `CCc1c(O)nc(SCC(=O)NCc2ccco2)[nH]c1=O` as the molecule, how does the activity change, negative = inhibition read?
A: The activity change, negative = inhibition was inconclusive: 14.6%.

Q: With `O=C(O)c1ccc2c3c(cccc13)C(=O)N(c1ccccc1O)C2=O` as the molecule, how does the “activity change, negative = inhibition” value read?
A: Its value is inactive: -16.1%.

Q: Which Potency does the source give for `COC(=O)CSc1cc(SCC(=O)OC)c(C#N)c(SCC(=O)OC)c1` here?
A: Its Potency is inconclusive: 10 µM [rising, single point].

Q: Which Potency does the source give for `Cc1ccc(-c2nn(C)c(=O)c3ccccc23)cc1CNS(C)(=O)=O` here?
A: The Potency was inconclusive: 10 µM [rising, single point].

Q: Which activity change, negative = inhibition does the source give for `CC(=O)C(Sc1nc(N2CCOCC2)nc(N2CCOCC2)n1)C(=O)Nc1ccccc1` (stereo not given) here?
A: The activity change, negative = inhibition was inconclusive: -13.3%.

Q: For `COc1ccc(OC)c(S(=O)(=O)Nc2ccc(O)c3ccccc23)c1`, which Potency is on record?
A: The Potency was inconclusive: 12.6 µM [rising, partial curve].

Q: Which Potency does the source give for `Cc1nc2ccccc2c2oc(C(=O)Nc3ccc4c(c3)OCCO4)cc12` here?
A: The Potency was inconclusive: 2 µM [rising, full curve].

Q: For `COc1cc(C(=O)OC2CCCCC2=O)cc(OC)c1C` (stereo not given), which Potency is on record?
A: The Potency was inconclusive: 15.8 µM [rising, partial curve].

Q: Which “activity change, negative = inhibition” value does the source give for `COc1ccc(S(=O)(=O)N2CCN(c3nc4ccccc4nc3-n3nc(C)cc3C)CC2)cc1` here?
A: Its value is inactive: -7.82%.

Q: Which Potency does the source give for `COc1ccccc1NC(=O)c1cc2ccc(O)cc2o/c1=N\O` here?
A: Its Potency is active: 10 µM.

Q: For `COc1ccc(C(=O)NCc2nnc(SCC(=O)Nc3cc(C)cc(C)c3)o2)cc1OC`, which activity change, negative = inhibition is on record?
A: Its activity change, negative = inhibition is inconclusive: 12.1%.

Q: For `COc1ccc(-c2nn(-c3ccccc3)cc2/C=N/n2cnnc2)cc1OC`, which Potency is on record?
A: Its Potency is inconclusive: 12.6 µM [rising, partial curve].

Q: For `N=C1Sc2ccccc2C2=NCCCN12`, which “activity change, negative = inhibition” value is on record?
A: Its value is inactive: 18%.

Q: Which Potency does the source give for `c1ccc(-c2noc(-c3cccc4ccccc34)n2)nc1` here?
A: The Potency was inconclusive: 12.6 µM [rising, single point].

Q: Which “activity change, negative = inhibition” value does the source give for `CCCC(NS(=O)(=O)c1ccc(OC)cc1)C(=O)O` (stereo not given) here?
A: The value was inactive: 1.91%.

Q: For `COc1ccc(Oc2ncc3ncc(=O)n(C)c3n2)cc1`, which Potency is on record?
A: Its Potency is inconclusive: 10 µM [rising, partial curve].

Q: For `O=C1c2ccccc2C(Nc2ccc3nc(-c4cccnc4)[nH]c3c2)N1Cc1ccco1` (stereo not given), which Potency is on record?
A: The Potency was inconclusive: 10 µM [rising, partial curve].

Q: For `O=S(=O)(c1ccccc1)N1CCC2(CCCN(Cc3ccccc3)C2)CC1`, which “activity change, negative = inhibition” value is on record?
A: Its value is inactive: -4.94%.

Q: With `CC(=O)N1C2(C=CC1(C)C(=O)NCc1ccccn1)CCCCC2` (stereo not given) as the molecule, how does the “activity change, negative = inhibition” value read?
A: Its value is inactive: 5.32%.

Q: With `COc1cc(OC)cc(-c2nnc(Nc3nc4c(F)cccc4s3)o2)c1` as the molecule, how does the “activity change, negative = inhibition” value read?
A: Its value is inactive: 9.5%.

Q: Which Potency does the source give for `COc1ccc(-c2cc(C(F)(F)F)nc(N3CCCCC3)n2)cc1OC` here?
A: The Potency was inconclusive: 3.98 µM [rising, partial curve].

Q: With `O=C(CSc1ccc2nnc(-c3cccs3)n2n1)N1CCOCC1` as the molecule, how does the Potency read?
A: Its Potency is inconclusive: 10 µM [rising, partial curve].

Q: With `c1ccc2c3nnc4n(c-3nc2c1)CCCS4` as the molecule, how does the Potency read?
A: The Potency was inconclusive: 0.251 µM [falling, partial curve, poor fit].

Q: With `CCC(Sc1nc2cc(OC)c(OC)cc2c2nc(C)nn12)C(=O)NCc1ccco1` (stereo not given) as the molecule, how does the Potency read?
A: The Potency was inconclusive: 15.8 µM [rising, single point].

Q: Which activity change, negative = inhibition does the source give for `CCN(CC(=O)Nc1ccc2c(c1)OCCO2)C(=O)c1cccc(S(=O)(=O)N2CCOCC2)c1` here?
A: The activity change, negative = inhibition was inconclusive: -5.78%.

Q: With `Cn1c(SCC(=O)c2ccccc2)nc2cccnc21` as the molecule, how does the activity change, negative = inhibition read?
A: The activity change, negative = inhibition was inconclusive: 24.4%.

Q: For `CC1CCCC(C)N1CCNC(=O)Cn1nc(-c2ccccc2)ccc1=O` (stereo not given), which “activity change, negative = inhibition” value is on record?
A: The value was inactive: -0.37%.

Q: For `O=c1c(/C=N/O)coc2ccc3ccccc3c12`, which Potency is on record?
A: The Potency was inconclusive: 10 µM [rising, single point].

Q: For `O=C(CN(CC1CCCO1)S(=O)(=O)c1ccc(S(=O)(=O)NC2CC2)cc1)Nc1ccccc1` (stereo not given), which Potency is on record?
A: Its Potency is inconclusive: 5.01 µM [falling, single point].

Q: With `Cc1cc(C(=O)Nc2c(F)cc(F)cc2Br)no1` as the molecule, how does the activity change, negative = inhibition read?
A: Its activity change, negative = inhibition is inconclusive: -1%.

Q: Which “activity change, negative = inhibition” value does the source give for `COc1ccc(CCN2C(=O)CC(N3CCN(c4ccccn4)CC3)C2=O)cc1OC` (stereo not given) here?
A: Its value is inactive: 5.92%.

Q: For `Cc1noc(C)c1C(=O)Nc1nc(C23CC4CC(CC(C4)C2)C3)cs1`, which activity change, negative = inhibition is on record?
A: Its activity change, negative = inhibition is inconclusive: -23.3%.

Q: With `COC(=O)[C@@H]1CCCN1C(=O)[C@H]1C[C@@H]1[C@H](NC(=O)OCc1ccccc1)c1ccccc1` as the molecule, how does the “activity change, negative = inhibition” value read?
A: The value was inactive: -11.5%.

Q: For `Cc1cc(C)nc(NC(=O)CSc2ccccn2)n1`, which “activity change, negative = inhibition” value is on record?
A: The value was inactive: 2.14%.

Q: With `O[C@@H](c1cc([C@@]23C[C@H]4CC[C@@H]2C[C@H](C4)C3)nc2c(Cl)cc(Cl)cc12)[C@@H]1CCCCN1` as the molecule, how does the activity change, negative = inhibition read?
A: The activity change, negative = inhibition was inactive: -5.02% [at 7.6 µM].

Q: Which “activity change, negative = inhibition” value does the source give for `O=C(NCC1CCCO1)c1cccc(NC(=O)c2ccco2)c1` (stereo not given) here?
A: Its value is inactive: 0.00996%.

Q: With `CSc1nc(NC2CCCC2)c([N+](=O)[O-])c(NC2CCCC2)n1` as the molecule, how does the “activity change, negative = inhibition” value read?
A: The value was inactive: 18.8%.

Q: With `CCOc1cc(C(=O)OCc2ccc(C(=O)OC)o2)cc(Br)c1OC` as the molecule, how does the Potency read?
A: The Potency was inconclusive: 10 µM [rising, partial curve].

Q: With `COc1c[nH]n(C2CCCCC2)c(=O)c1=O` as the molecule, how does the “activity change, negative = inhibition” value read?
A: The value was inactive: -4.22%.

Q: Which “activity change, negative = inhibition” value does the source give for `CC1=C(C(=O)N2CCOCC2)C(c2ccccc2F)C2=C(CCCC2=O)N1` (stereo not given) here?
A: The value was inactive: -0.136%.

Q: Which activity change, negative = inhibition does the source give for `CC(=O)N1CCCc2cc(S(=O)(=O)N3CCN(C4CCCCC4)CC3)ccc21` here?
A: The activity change, negative = inhibition was inconclusive: -18.3%.

Q: With `COc1cc(C)c(C(C)C)cc1S(=O)(=O)n1cnc(C)c1` as the molecule, how does the Potency read?
A: The Potency was active: 12.6 µM.

Q: With `O=C(NCCSCc1ccccc1)c1cc(S(=O)(=O)N2CCOCC2)ccc1F` as the molecule, how does the Potency read?
A: Its Potency is inconclusive: 20 µM [falling, single point].
